Here are results for twelve sequences from the domain aggregation screens of Martell et al. (2025).

A short description of this series: soluble fraction after stress (log2 fold change); higher = more stays soluble; pooled small domains, quantitative proteomics. The settings on record: stress: pH 4. An outline of the steps: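 Custom libraries of small protein domains were pooled and measured with high-throughput quantitative proteomics after pH 4 stress. The read-out is the fold change in the amount of each domain that stays soluble after the acid stress, taken as a measure of aggregation propensity. Fold changes are on a log2 scale, and higher values mean more of the domain stayed soluble.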

On to “HMKYKDYYAVLGVPRDADLDQIKKAYRKLARQFHPDVSKEPNAEAQFKEAGEAYATLKDAEKRAAYDQLG”, for which the “soluble fraction (log2)” value was 0.203.
Regarding “HMKAAYITIHDKIKDDIDLGIWKIGQRLPSERDLADEFGVSRMTLRQAITLLVEEGVLTRKVGSGTYVAS”, the “soluble fraction (log2)” value is no less than 0.43.
Next, “HMADYYSVLGVERDATEEEIKRAYRKMSRKYHPDLAGPQFEEKFKEVNTAYEVLSDPEKRRMFDMGVDPN”: 0.177; “HMSDYYSVLGVSRDATGEEIKRAYRKLARELHPDVNPDPATNEKFKEVTAAYEVLSDPSKRQMYDLGGDPR”: -0.0146; “HMPREEGIVKWFNRTKGFGFIIRENGDEIFVHHRSVSAHGGQRANLSDGQRVTFTVVERSKGWQAEDVDP”: -1.62.
As for “HMQVDDAELIDLVEMEIRELLTSYEFPGDTIPIVKGSALAALEGRDDEIGKNSILELMKAVDESIPQPT”, the “soluble fraction (log2)” value is -0.895.
Next, “HMNDDYYAILGVSRDADQSEIKKAYRKKARETHPDYGGDEEAFKAVSVAYETLSDPEKRRMYDIGGPDAAR”: no less than 0.43; “HMGIYRHFKGGLYEVVGTAKHSETEEELIVYRALYGDYGLWARPAAMFTETVEIDGEPLPRFSLI”: -0.917; “HMDQVDDEELLDLVELEVRELLSAYEFPGDDIPIIKGSALAALEGGDEATGKNAILELMKAVDDYVPQPE”: -1.54.
In the case of “HMVDYYEVLGVRVDASDSEVKRAYRRLIVENHPDKLIAQGLPQEFIDLANEKMGAINSAYDMIKKERRI” it was -1.16.
With “HMQSHRFQRLQNDLANRIAQTPPSERLPSEPQLAQELGVSRATLREAMRAFEAQGLIRRKQGAGTFVVG”, the “soluble fraction (log2)” value was no less than 0.43.
On to “HMPLHDIGKVGIPDHILLKPGKLTPAEWEVMKTHARLGAAAIEQAEREATRPVEFLVLAKEIAHHHHER”, for which the “soluble fraction (log2)” value is 0.152.
